Among all 410,000 compounds or so, about 5,000 (1.2%) were called active. Inconclusive results, whose numbers are uncertain, are shown with a selection of clear calls. Calls come from the whole dose curve; as a rule, active = well fitted inhibition curve with a large enough effect; inconclusive = small, poorly fitted or top-dose-only effect; inactive = no such curve, though single readings can be large or run the other way. Potencies beside an inconclusive call are fits to weak or partial responses and may not hold up.
test: qHTS for Inhibitors of TGF-b; details: HepG2 CAGA-GFP TGF-b/SMAD3 reporter, GFP fluorescence, 18 h, TGF-beta stimulated, 500 pg/mL final; series mostly up to 46.1 µM; note: nearly all actives have a fitted effect of over 65% in size
Procedure, shortened: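 HEPG2 CAGA-GFP, 1000 cells/well; 2 h settle, 37 C; cpd via pin tool; TGF-b 500 pg/mL final; 18 h, 37 C; GFP imaging ex488/em500-530; %Activity normalised to -TGF-b and +DMSO controls; CRC fit, curve class.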
Potency is the fitted concentration of half-maximal effect; tags give direction and shape of the fitted curve.

Compound | Potency
COc1cc2c(cc1OC)CN(C(=O)/C=C/c1ccc([N+](=O)[O-])cc1)CC2 | inactive
N=c1c2c(ncn1Cc1ccco1)Oc1cc(O)ccc1C2c1ccccc1 (configuration not stated) | inactive
COc1cccc(-c2ccc3c(N)c(C(=O)c4ccc(Cl)cc4)sc3n2)c1 | inactive
Cc1c(C(=O)Nc2ccc3c(c2)CCC3)cccc1[N+](=O)[O-] | inactive
COc1ccc(S(=O)(=O)Nc2cccc3ccc(O)cc23)cc1 | inconclusive: 15.8 µM [inhibitor, single point]
CCCC[C@@H]1C[C@H]1[C@@H](NC(=O)c1cccs1)c1ccc(Cl)cc1 | inconclusive: 22.4 µM [inhibitor, single point]
CCOC(=O)C1=C(C)N(C[C@@H]2CC[C@@H](Cc3ccc(-c4ccccc4)cc3)O2)C(=O)NC1c1ccc(Cl)cc1 (some centres not stated) | inconclusive: 22.4 µM [inhibitor, single point]
Cc1ccc(-c2csc(NCCc3nc4cc(Cl)c(Cl)cc4n3CCCO)n2)cc1 | inconclusive: 15.8 µM [inhibitor, partial curve, poor fit]
Cc1cccc(C)c1Nc1sc(C(=O)c2ccccc2)c(N)c1C(=O)Nc1ccc(F)cc1 | active: 11.2 µM
CC(=NNC(=S)N1CC2CCC(CC2)C1)c1ccccn1 | inconclusive: 11.2 µM [inhibitor, partial curve, poor fit]
COc1cccc(NC(=O)C2(C)CCN2Cc2cccc(OC)c2F)c1 (configuration not stated) | inactive
CCCN(CCC)Cc1cc(=O)oc2cc(C)c(Cl)cc12 | inactive
CC(=O)N1CCc2c(sc(NC(=O)c3ccc([N+](=O)[O-])o3)c2C(N)=O)C1 | active: 3.55 µM
CCOC(=O)C(CCCCOc1cccc(CC)c1)C(=O)OCC | inactive
CCOC(=O)NC(NC(=S)Nc1ccc(OC)cc1)C(Cl)(Cl)Cl (configuration not stated) | inactive
O=C(Nn1c(COc2ccccc2)nc2ccccc2c1=O)C(Cl)(Cl)Cl | inconclusive: 22.4 µM [inhibitor, single point]
C=C[C@@H]1c2c(F)cccc2N(S(=O)(=O)c2ccc(C)cc2)[C@H](c2ccc(C(=O)OC)cc2)C1(C#N)C#N | inconclusive: 5.62 µM [inhibitor, single point]
S=C(NCCc1ccccc1)N/N=C/c1ccc(Cl)cc1 | inconclusive: 35.5 µM [inhibitor, single point]
NS(=O)(=O)c1ccc(N2N=C(c3ccccc3)CC2c2cccc(F)c2)cc1 (configuration not stated) | inconclusive: 22.4 µM [inhibitor, single point]
Cc1ccc(-c2c(C(=O)N/N=C/c3c[nH]c4ccccc34)nnn2-c2nonc2N)cc1 | inconclusive: 22.4 µM [inhibitor, single point]
c1ccc2c(CCN3CCNC[C@H]3Cc3cccc4ccccc34)cccc2c1 | inconclusive: 35.5 µM [inhibitor, single point]

Compound | Potency
S=C(Nc1cccnc1)Nc1ccccc1Br | inactive
CN1CCN(CC(=O)c2cc(C(C)(C)C)c(O)c(C(C)(C)C)c2)CC1 | inconclusive: 35.5 µM [inhibitor, single point]
CCCn1c2ccccc2c2nnc(SCC(=O)Nc3ncccn3)nc21 | inactive
Cc1nn(Cc2ccccc2)c(C)c1NC(=O)c1cc(-c2cccs2)on1 | inconclusive: 3.55 µM [inhibitor, partial curve, poor fit]
COc1cccc(NC(=S)/C(=C(\[O-])c2cc(C)n(-c3ccccc3F)c2C)[n+]2ccc(N(C)C)cc2)c1 | inconclusive: 35.5 µM [inhibitor, single point]
CC(=O)OC1[C@H](Oc2c(O)c(C)c3c4c2[C@@H](C)CC[C@@H]4[C@@H](C)C[C@@H]3C=C(C)C)OC[C@@H](O)[C@@H]1O (some centres not stated) | active: 11.2 µM
CCN(CC)C(=S)Sc1c(-c2ccccc2)c2cc(Cl)ccc2[nH]c1=O | inconclusive: 5.01 µM [inhibitor, full curve, poor fit]
CCCN(CC(=O)Nc1ccccc1C)C(=O)CCCOc1ccc(Br)cc1 | inactive
CCCC#Cc1cnc2c(c1)C(=O)N([C@H](C)CO)C[C@@H](C)[C@@H](CN(C)C(=O)Nc1cccc(F)c1)O2 | inconclusive: 22.4 µM [inhibitor, single point]
Cc1ccc(-c2nc(CS(=O)CC(=O)NCc3ccc(F)cc3)c(C)o2)cc1 (configuration not stated) | inconclusive: 12.6 µM [inhibitor, single point]
COc1ccc2cc(C(=O)C3CCCN(Cc4ccccn4)C3)ccc2c1 (configuration not stated) | inconclusive: 14.1 µM [inhibitor, single point]
CC(C)c1ccc(S(=O)(=O)NCc2ccc3c(c2)CCN3C(=O)c2ccccc2)cc1 | inconclusive: 11.2 µM [inhibitor, single point]
COc1ccc(CNC(=O)c2ccc3c(c2)nc2n3CCC(C)C2)c(OC)c1 (configuration not stated) | inactive
Cc1ccc2nc(SCc3nnc(-c4ccccc4[N+](=O)[O-])o3)c(C#N)cc2c1 | inconclusive: 2 µM [inhibitor, partial curve, poor fit]
O=C(C[n+]1ccn(-c2ccccc2)c1)c1ccc([N+](=O)[O-])cc1 | inconclusive: 11.2 µM [inhibitor, partial curve]
COCCCNC(=O)CCCCn1c(=O)c2ccccc2n(CC(=O)Nc2ccc(C)cc2C)c1=O | inactive
Oc1ccc(C[C@H]2CNC(=S)N2CCc2cc(C(F)(F)F)cc(C(F)(F)F)c2)cc1 | inconclusive: 28.2 µM [inhibitor, single point]
C=Cc1ccc(Cn2nc(-c3ccc(C)c(S(=O)(=O)N(CC)CC)c3)ccc2=O)cc1 | inconclusive: 17.8 µM [inhibitor, single point]
NC(N)=N/N=C/c1ccc(OCc2ccc(Cl)cc2Cl)cc1 | inconclusive: 35.5 µM [inhibitor, single point]
Cn1cc(C(=O)c2ccc(Cl)cc2Cl)cc1C(=O)N/N=C(\N)COc1ccc(Cl)cc1Cl | inconclusive: 35.5 µM [inhibitor, single point]
Cc1cccc(NS(=O)(=O)c2ccc(NC(=O)CN(c3cc([N+](=O)[O-])ccc3C)S(C)(=O)=O)cc2)c1 | active: 15.8 µM

— PubChem BioAssay AID588855 (National Center for Advancing Translational Sciences (NCATS), 2011)
